Results taken from PMC9911399, “Two distinct binding modes provide the RNA-binding protein RbFox with extraordinary sequence specificity”.
Changes are numbered by the printed parent chain; changes in the protein carry UniProt numbers. This is one part of the list.

B1: UGGGGUC (DNA:RNA)
RNA: GGGAGACCGGAAUUCAGAUUGUCCUGGGGUCUUAAAUCCCGUCGUAGCCACCA
DNA 1: CAATCTGAATTCCGGTCTCCC
DNA 2: TGGTGGCTACGACGGGATT
B2: CGUGUGG (DNA:RNA)
RNA: B1 RNA with U25C, G27U, G29U, U30G, C31G
DNA 1: CAATCTGAATTCCGGTCTCCC
DNA 2: TGGTGGCTACGACGGGATT
B3: CGAUUUC (DNA:RNA)
RNA: B1 RNA with U25C, G27A, G28U, G29U
DNA 1: CAATCTGAATTCCGGTCTCCC
DNA 2: TGGTGGCTACGACGGGATT
B4: CAUGUCA (DNA:RNA)
RNA: B1 RNA with U25C, G26A, G27U, G29U, U30C, C31A
DNA 1: CAATCTGAATTCCGGTCTCCC
DNA 2: TGGTGGCTACGACGGGATT
B5: AGAUAUU (DNA:RNA)
RNA: B1 RNA with U25A, G27A, G28U, G29A, C31U
DNA 1: CAATCTGAATTCCGGTCTCCC
DNA 2: TGGTGGCTACGACGGGATT
B6: AGCCCCA (DNA:RNA)
RNA: B1 RNA with U25A, G27C, G28C, G29C, U30C, C31A
DNA 1: CAATCTGAATTCCGGTCTCCC
DNA 2: TGGTGGCTACGACGGGATT
B7: UUCGCGC (DNA:RNA)
RNA: B1 RNA with G26U, G27C, G29C, U30G
DNA 1: CAATCTGAATTCCGGTCTCCC
DNA 2: TGGTGGCTACGACGGGATT
B8: GGCCUGA (DNA:RNA)
RNA: B1 RNA with U25G, G27C, G28C, G29U, U30G, C31A
DNA 1: CAATCTGAATTCCGGTCTCCC
DNA 2: TGGTGGCTACGACGGGATT
B9: ACAUCAC (DNA:RNA)
RNA: B1 RNA with U25A, G26C, G27A, G28U, G29C, U30A
DNA 1: CAATCTGAATTCCGGTCTCCC
DNA 2: TGGTGGCTACGACGGGATT
B10: UAGCAAU (DNA:RNA)
RNA: B1 RNA with G26A, G28C, G29A, U30A, C31U
DNA 1: CAATCTGAATTCCGGTCTCCC
DNA 2: TGGTGGCTACGACGGGATT
B11: GGUUGCC (DNA:RNA)
RNA: B1 RNA with U25G, G27U, G28U, U30C
DNA 1: CAATCTGAATTCCGGTCTCCC
DNA 2: TGGTGGCTACGACGGGATT
B12: AAGCUUA (DNA:RNA)
RNA: B1 RNA with U25A, G26A, G28C, G29U, C31A
DNA 1: CAATCTGAATTCCGGTCTCCC
DNA 2: TGGTGGCTACGACGGGATT
B13: GUUUGGU (DNA:RNA)
RNA: B1 RNA with U25G, G26U, G27U, G28U, U30G, C31U
DNA 1: CAATCTGAATTCCGGTCTCCC
DNA 2: TGGTGGCTACGACGGGATT
B14: UAGCCAC (DNA:RNA)
RNA: B1 RNA with G26A, G28C, G29C, U30A
DNA 1: CAATCTGAATTCCGGTCTCCC
DNA 2: TGGTGGCTACGACGGGATT
B15: AUAUUCC (DNA:RNA)
RNA: B1 RNA with U25A, G26U, G27A, G28U, G29U, U30C
DNA 1: CAATCTGAATTCCGGTCTCCC
DNA 2: TGGTGGCTACGACGGGATT
B16: GCUGGCA (DNA:RNA)
RNA: B1 RNA with U25G, G26C, G27U, U30C, C31A
DNA 1: CAATCTGAATTCCGGTCTCCC
DNA 2: TGGTGGCTACGACGGGATT
B17: GGAUGUU (DNA:RNA)
RNA: B1 RNA with U25G, G27A, G28U, C31U
DNA 1: CAATCTGAATTCCGGTCTCCC
DNA 2: TGGTGGCTACGACGGGATT
B18: ACGCACC (DNA:RNA)
RNA: B1 RNA with U25A, G26C, G28C, G29A, U30C
DNA 1: CAATCTGAATTCCGGTCTCCC
DNA 2: TGGTGGCTACGACGGGATT
B19: AUUUUUU (DNA:RNA)
RNA: B1 RNA with U25A, G26U, G27U, G28U, G29U, C31U
DNA 1: CAATCTGAATTCCGGTCTCCC
DNA 2: TGGTGGCTACGACGGGATT
B20: CCGCGGC (DNA:RNA)
RNA: B1 RNA with U25C, G26C, G28C, U30G
DNA 1: CAATCTGAATTCCGGTCTCCC
DNA 2: TGGTGGCTACGACGGGATT

Target: T1, RBFOX1 RRM (Homo sapiens, UniProt Q9NWB1 109-208)
T1 sequence: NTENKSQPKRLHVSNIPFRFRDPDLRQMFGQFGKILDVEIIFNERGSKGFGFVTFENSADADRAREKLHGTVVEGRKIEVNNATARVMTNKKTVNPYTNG
Experiment: EMSA; HiTS-Eq, 1 nM pool, 10 min; buffer printed only for the single-RNA assays: 10 mM Tris pH 7.5, 150 mM NaCl, 3.4 mM EDTA, 0.001% NP-40, 30 C
Settings: tags: His6 N-terminal (pET28a); label: 5' 32P
Procedure, shortened: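 Purified wild-type or mutant RbFox RRM at increasing concentrations was equilibrated with 1 nM of 5′-radiolabelled RNA carrying 7 randomized nucleotides for 10 min in 50 µL. Unbound RNA was separated by 8% native PAGE and sequenced. Relative association constants came from read-count changes of each RNA species compared with the control reaction, normalised to the cognate motif.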

Point of comparison: B13, binding signal 0.0232 KA relative to UGCAUGU. Against it:
- B1 — higher, 0.0387 KA relative to UGCAUGU
- B2 — lower, 0.00978 KA relative to UGCAUGU
- B3 — lower, 0.00946 KA relative to UGCAUGU
- B4 — lower, 0.00534 KA relative to UGCAUGU
- B5 — lower, 0.00865 KA relative to UGCAUGU
- B6 — lower, 0.00108 KA relative to UGCAUGU
- B7 — lower, 0.014 KA relative to UGCAUGU
- B8 — lower, 0.0134 KA relative to UGCAUGU
- B9 — lower, 0.00395 KA relative to UGCAUGU
- B10 — lower, 0.00857 KA relative to UGCAUGU
- B11 — higher, 0.0278 KA relative to UGCAUGU
- B12 — lower, 0.00275 KA relative to UGCAUGU
- B14 — lower, 0.00391 KA relative to UGCAUGU
- B15 — lower, 0.000456 KA relative to UGCAUGU
- B16 — higher, 0.0266 KA relative to UGCAUGU
- B17 — lower, 0.0216 KA relative to UGCAUGU
- B18 — lower, 0.00708 KA relative to UGCAUGU
- B19 — lower, 0.007 KA relative to UGCAUGU
- B20 — lower, 0.00923 KA relative to UGCAUGU
